{"source": "the supplement of paper PMC8728848", "test_in_all_cases": "glycan array binding signal (z-score within array); higher = stronger binding", "settings_in_all_cases": "glycan notation: IUPAC condensed, linker removed", "key": {"[1]": {"target": "GalNAc(b1-4)GlcNAc(b1-2)Man", "method_in_brief": "(§1)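 Negative Z-scores can be read as non-binding. The Z-score is calculated within each array and then averaged across arrays of one protein sequence at different concentrations or buffers and across linkers. Arrays, 3228 in all, were curated from the Consortium for Functional Glycomics database and kept only where the protein sequence was available.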"}, "[2]": {"target": "GalNAc(b1-4)GlcNAc(b1-2)Man(a1-3)[GalNAc(b1-4)GlcNAc(b1-2)Man(a1-6)]Man(b1-4)GlcNAc(b1-4)GlcNAc", "method_in_brief": "as §1"}, "[3]": {"target": "GalNAc(b1-4)GlcNAc(b1-3)GalNAc(b1-4)GlcNAc", "method_in_brief": "as §1"}, "[4]": {"target": "GalNAc(b1-4)GlcNAc6S", "method_in_brief": "as §1"}, "[5]": {"target": "GalNAc(b1-6)GalNAc", "method_in_brief": "as §1"}, "[6]": {"target": "GalNAc3S(b1-4)GlcNAc", "method_in_brief": "as §1"}, "[7]": {"target": "GalNAc3S(b1-4)GlcNAc3S", "method_in_brief": "as §1"}, "[8]": {"target": "GalNAc3S(b1-4)[Fuc(a1-3)]GlcNAc", "method_in_brief": "as §1"}, "[9]": {"target": "GalNAc4S6S(b1-4)GlcNAc", "method_in_brief": "as §1"}, "[10]": {"target": "GalNAc6S(b1-4)GlcNAc", "method_in_brief": "as §1"}, "[11]": {"target": "Glc(a1-4)Glc", "method_in_brief": "as §1"}, "[12]": {"target": "Glc(a1-4)Glc(a1-4)Glc(a1-4)Glc", "method_in_brief": "as §1"}, "[13]": {"target": "Glc(a1-6)Glc(a1-6)Glc", "method_in_brief": "as §1"}, "[14]": {"target": "Glc(a1-6)Glc(a1-6)Glc(a1-6)Glc", "method_in_brief": "as §1"}, "[15]": {"target": "Glc(b1-4)Glc", "method_in_brief": "as §1"}, "[16]": {"target": "Glc(b1-6)Glc", "method_in_brief": "as §1"}, "[17]": {"target": "GlcA(b1-3)Gal", "method_in_brief": "as §1"}, "[18]": {"target": "GlcA(b1-3)GlcNAc", "method_in_brief": "as §1"}, "[19]": {"target": "GlcA(b1-6)Gal", "method_in_brief": "as §1"}, "[20]": {"target": "GlcA3S(b1-3)Gal(b1-4)GlcNAc(b1-2)Man", "method_in_brief": "as §1"}, "[21]": {"target": "GlcA3S(b1-3)Gal(b1-4)GlcNAc(b1-3)Gal(b1-4)Glc", "method_in_brief": "as §1"}, "[22]": {"target": "GlcNAc(a1-3)Gal(b1-4)GlcNAc", "method_in_brief": "as §1"}, "[23]": {"target": "GlcNAc(a1-4)Gal(b1-3)GlcNAc", "method_in_brief": "as §1"}, "[24]": {"target": "GlcNAc(a1-4)Gal(b1-4)GalNAc", "method_in_brief": "as §1"}, "[25]": {"target": "GlcNAc(a1-4)Gal(b1-4)GlcNAc", "method_in_brief": "as §1"}, "[26]": {"target": "GlcNAc(a1-4)Gal(b1-4)GlcNAc(b1-3)Gal(b1-4)Glc", "method_in_brief": "as §1"}, "[27]": {"target": "GlcNAc(a1-4)Gal(b1-4)GlcNAc(b1-3)Gal(b1-4)GlcNAc", "method_in_brief": "as §1"}, "[28]": {"target": "GlcNAc(a1-4)Gal(b1-4)GlcNAc(b1-3)Gal(b1-4)GlcNAc(b1-3)Gal(b1-4)GlcNAc", "method_in_brief": "as §1"}, "[29]": {"target": "GlcNAc(a1-4)Gal(b1-4)GlcNAc(b1-3)Gal(b1-4)[Fuc(a1-3)]GlcNAc(b1-3)Gal(b1-4)[Fuc(a1-3)]GlcNAc", "method_in_brief": "as §1"}, "[30]": {"target": "GlcNAc(a1-6)Gal(b1-4)GlcNAc", "method_in_brief": "as §1"}, "[31]": {"target": "GlcNAc(b1-2)Gal(b1-3)GalNAc", "method_in_brief": "as §1"}, "[32]": {"target": "GlcNAc(b1-2)Man(a1-3)[GlcNAc(b1-2)Man(a1-6)]Man(b1-4)GlcNAc(b1-4)GlcNAc", "method_in_brief": "as §1"}, "[33]": {"target": "GlcNAc(b1-2)Man(a1-3)[GlcNAc(b1-2)Man(a1-6)]Man(b1-4)GlcNAc(b1-4)[Fuc(a1-6)]GlcNAc", "method_in_brief": "as §1"}, "[34]": {"target": "GlcNAc(b1-2)Man(a1-3)[GlcNAc(b1-4)][GlcNAc(b1-2)Man(a1-6)]Man(b1-4)GlcNAc(b1-4)GlcNAc", "method_in_brief": "as §1"}, "[35]": {"target": "GlcNAc(b1-2)Man(a1-3)[GlcNAc(b1-4)][GlcNAc(b1-2)Man(a1-6)]Man(b1-4)GlcNAc(b1-4)[Fuc(a1-6)]GlcNAc", "method_in_brief": "as §1"}, "[36]": {"target": "GlcNAc(b1-2)[GlcNAc(b1-4)]Man(a1-3)[GlcNAc(b1-2)Man(a1-6)]Man(b1-4)GlcNAc(b1-4)GlcNAc", "method_in_brief": "as §1"}, "[37]": {"target": "GlcNAc(b1-2)[GlcNAc(b1-4)]Man(a1-3)[GlcNAc(b1-4)][GlcNAc(b1-2)Man(a1-6)]Man(b1-4)GlcNAc(b1-4)GlcNAc", "method_in_brief": "as §1"}, "[38]": {"target": "GlcNAc(b1-2)[GlcNAc(b1-4)]Man(a1-3)[GlcNAc(b1-4)][GlcNAc(b1-2)[GlcNAc(b1-6)]Man(a1-6)]Man(b1-4)GlcNAc(b1-4)GlcNAc", "method_in_brief": "as §1"}, "[39]": {"target": "GlcNAc(b1-2)[GlcNAc(b1-4)]Man(a1-3)[GlcNAc(b1-4)][GlcNAc(b1-2)[GlcNAc(b1-6)]Man(a1-6)]Man(b1-4)GlcNAc(b1-4)[Fuc(a1-6)]GlcNAc", "method_in_brief": "as §1"}, "[40]": {"target": "GlcNAc(b1-2)[GlcNAc(b1-6)]Man(a1-6)[GlcNAc(b1-2)Man(a1-3)]Man(b1-4)GlcNAc(b1-4)GlcNAc", "method_in_brief": "as §1"}, "[41]": {"target": "GlcNAc(b1-2)[GlcNAc(b1-6)]Man(a1-6)[GlcNAc(b1-2)Man(a1-3)]Man(b1-4)GlcNAc(b1-4)[Fuc(a1-6)]GlcNAc", "method_in_brief": "as §1"}, "[42]": {"target": "GlcNAc(b1-2)[GlcNAc(b1-6)]Man(a1-6)[GlcNAc(b1-4)][GlcNAc(b1-2)Man(a1-3)]Man(b1-4)GlcNAc(b1-4)GlcNAc", "method_in_brief": "as §1"}, "[43]": {"target": "GlcNAc(b1-3)Fuc", "method_in_brief": "as §1"}, "[44]": {"target": "GlcNAc(b1-3)Gal", "method_in_brief": "as §1"}, "[45]": {"target": "GlcNAc(b1-3)Gal(b1-3)GalNAc", "method_in_brief": "as §1"}}, "note": "The list shows a part of the results."}
{"binder": "HPL (Tachypleus tridentatus) (protein) MEDDCTCVTDRSLEGKLMKHPSTPAVYQILDGCRRLVPNPPTYNNIYKNWECIQSNILEKLLCKCDSLSNGAELIKGSGDTVYLLSNGVKRPIADPETFNGFCFDWNKIKTYSDIVINSLSTGPIIIIKHHHHHH", "values": [{"measurement": "glycan array binding signal (z-score)", "setting": "[1]", "value": -0.379}, {"measurement": "glycan array binding signal (z-score)", "setting": "[2]", "value": 0.074}, {"measurement": "glycan array binding signal (z-score)", "setting": "[3]", "value": -0.126}, {"measurement": "glycan array binding signal (z-score)", "setting": "[4]", "value": -0.352}, {"measurement": "glycan array binding signal (z-score)", "setting": "[5]", "value": -0.421}, {"measurement": "glycan array binding signal (z-score)", "setting": "[6]", "value": -0.36}, {"measurement": "glycan array binding signal (z-score)", "setting": "[7]", "value": -0.465}, {"measurement": "glycan array binding signal (z-score)", "setting": "[8]", "value": -0.07}, {"measurement": "glycan array binding signal (z-score)", "setting": "[9]", "value": -0.445}, {"measurement": "glycan array binding signal (z-score)", "setting": "[10]", "value": -0.43}, {"measurement": "glycan array binding signal (z-score)", "setting": "[11]", "value": 0.695}, {"measurement": "glycan array binding signal (z-score)", "setting": "[12]", "value": -0.133}, {"measurement": "glycan array binding signal (z-score)", "setting": "[13]", "value": 1.14}, {"measurement": "glycan array binding signal (z-score)", "setting": "[14]", "value": 0.263}, {"measurement": "glycan array binding signal (z-score)", "setting": "[15]", "value": 0.446}, {"measurement": "glycan array binding signal (z-score)", "setting": "[16]", "value": 0.723}, {"measurement": "glycan array binding signal (z-score)", "setting": "[17]", "value": 0.253}, {"measurement": "glycan array binding signal (z-score)", "setting": "[18]", "value": -0.279}, {"measurement": "glycan array binding signal (z-score)", "setting": "[19]", "value": 0.657}, {"measurement": "glycan array binding signal (z-score)", "setting": "[20]", "value": -0.322}, {"measurement": "glycan array binding signal (z-score)", "setting": "[21]", "value": -0.135}, {"measurement": "glycan array binding signal (z-score)", "setting": "[22]", "value": -0.255}, {"measurement": "glycan array binding signal (z-score)", "setting": "[23]", "value": -0.342}, {"measurement": "glycan array binding signal (z-score)", "setting": "[24]", "value": -0.096}, {"measurement": "glycan array binding signal (z-score)", "setting": "[25]", "value": -0.317}, {"measurement": "glycan array binding signal (z-score)", "setting": "[26]", "value": -0.436}, {"measurement": "glycan array binding signal (z-score)", "setting": "[27]", "value": -0.398}, {"measurement": "glycan array binding signal (z-score)", "setting": "[28]", "value": -0.271}, {"measurement": "glycan array binding signal (z-score)", "setting": "[29]", "value": 0.294}, {"measurement": "glycan array binding signal (z-score)", "setting": "[30]", "value": -0.429}, {"measurement": "glycan array binding signal (z-score)", "setting": "[31]", "value": -0.4}, {"measurement": "glycan array binding signal (z-score)", "setting": "[32]", "value": -0.062}, {"measurement": "glycan array binding signal (z-score)", "setting": "[33]", "value": -0.154}, {"measurement": "glycan array binding signal (z-score)", "setting": "[34]", "value": -0.288}, {"measurement": "glycan array binding signal (z-score)", "setting": "[35]", "value": -0.283}, {"measurement": "glycan array binding signal (z-score)", "setting": "[36]", "value": -0.244}, {"measurement": "glycan array binding signal (z-score)", "setting": "[37]", "value": -0.138}, {"measurement": "glycan array binding signal (z-score)", "setting": "[38]", "value": -0.202}, {"measurement": "glycan array binding signal (z-score)", "setting": "[39]", "value": -0.385}, {"measurement": "glycan array binding signal (z-score)", "setting": "[40]", "value": 0.042}, {"measurement": "glycan array binding signal (z-score)", "setting": "[41]", "value": -0.185}, {"measurement": "glycan array binding signal (z-score)", "setting": "[42]", "value": -0.139}, {"measurement": "glycan array binding signal (z-score)", "setting": "[43]", "value": -0.353}, {"measurement": "glycan array binding signal (z-score)", "setting": "[44]", "value": -0.08}, {"measurement": "glycan array binding signal (z-score)", "setting": "[45]", "value": -0.007}]}
